This is an account of results in paper PMC12136788.

B1: chr19:39539560:39539696:-|CDS|ENSG00000176396|unk|FALSE|unique (ssRNA)
RNA: GGGAGUUCUACAGUCCGACGAUCCGGGAACGGAGGCCUGGCUGCGUUGCCCUAUCUCCGUCUCCGCCACCCACUUAGCGUUUUAGGCAUCAAUUACCAGCAGUUUCUCCGCCACUAUCUGGAAAAUUACCCGAUUGCUCCCGGCAACAGAGGAUUGAGCAUCA
B2: ENSG00000136451:be:win_4151|3pUTR|ENSG00000136451|bound_else_gene|NA|bound_elsewhere_windowed (ssRNA)
RNA: GGGAGUUCUACAGUCCGACGAUCUGUUGAAGGCACGACAGCCACUGCUCUACGAAAAGGCAGAGUACGUUUUUCCCUUCUGGUUGUAACCUGGUUGAGAGCUUCCCCUUUAUCAGAUUGGCAGCUAAACAGUUGUAUUAGAUACAACAGAGGAUUGAGCAUCA
B3: ENSG00000198589:be:win_6201|CDS|ENSG00000198589|bound_else_gene|NA|bound_elsewhere_windowed (ssRNA)
RNA: GGGAGUUCUACAGUCCGACGAUCUAGCCUGAGCACACCAGCUCAGCUUGUGGCCCCCUCUGUUGUAGUAAAGGGCACUCUUUCUGUCACCUCCUCCGAACUCUAUUUUGAGGUGGAUGAAGAGGAUCCUAACUUCAAAAAAAUCAACAGAGGAUUGAGCAUCA
B4: ENSG00000136451:be:win_801|CDS|ENSG00000136451|bound_else_gene|NA|bound_elsewhere_windowed (ssRNA)
RNA: GGGAGUUCUACAGUCCGACGAUCUGCUGCCUUUGCCACCAAAGACAGACUGCGGACACACAUGGUGCGCCAUGAAGGCAAGGUAUCAUGUAACAUCUGUGGGAAGCUCCUGAGUGCAGCAUACAUCACCAGCCACUUAAAGACCAACAGAGGAUUGAGCAUCA
B5: chr15:57953423:57955269:-|three_prime_utr|ENSG00000128918|control|control|control (ssRNA)
RNA: GGGAGUUCUACAGUCCGACGAUCGAAGGCCAAGAAGGAGGAUGAAGCCCAGCCUGCACGUCUGUCCCUCUCUGCUUUCUCUGUAGGGCCCAGCUCUCAGGAAUACAAAGUUGAGCCACGGUCCUUACUUAAAGAUUGAAAAGACAACAGAGGAUUGAGCAUCA
B6: chr13:44143149:44143917:-|three_prime_utr|ENSG00000139656|control|control|control (ssRNA)
RNA: GGGAGUUCUACAGUCCGACGAUCUCAGGCAAGACUCAGGACUGCUCUGGACAUUCAGAAGCUGAGUGUGCAAGUGUGCUGUGUAGUUCAAGGCCACCACCACUGAAGAGGCCAAGGACACCUUAGUAGGAAUUCUAACCUGGCCAACAGAGGAUUGAGCAUCA
B7: chr4:56448489:56448593:+|CDS|ENSG00000128050|unk|total|mutant (ssRNA)
RNA: GGGAGUUCUACAGUCCGACGAUCCCCACAGUGGUCUGAGGAACAGCUGAUUGCUGCAAAAUUUUGCUUUGCUGGACUUCUUACCGGCCAGACUGAAGUGGAUAUCAUGAGUCAUGCUACACAGGCUAUAUUUGAAAUACUGGACAACAGAGGAUUGAGCAUCA
B8: chr20:38750096:38750197:+|CDS|ENSG00000101442|unk|FALSE|unique (ssRNA)
RNA: GGGAGUUCUACAGUCCGACGAUCGCAAAUGAUGUCUGAGCUUCUUUUUGAGUGCUACGGGAUUCCCAAGGUUGCCUAUGGAAUAGACAGCCUCUUCAGCUUCUACCACAAUAAGCCAAAGAACUCGAUGUGCAGUGGGCUAAUCAACAGAGGAUUGAGCAUCA
B9: chr6:110632029:110632161:-|CDS|ENSG00000155111|control|control|control (ssRNA)
RNA: GGGAGUUCUACAGUCCGACGAUCCAUGGGUUUUGCCAGAUUAUUCAAUUCUCCUCUAAAGCCACUAGCAGAUUUGGAUCCAGUAGUUGUGACAUUUUGGUAUCGGGCUCCAGAACUUUUGCUUGGUGCAAGGCAUUAUACAAACAACAGAGGAUUGAGCAUCA
B10: ENSG00000070961:be:win_4651|3pUTR|ENSG00000070961|bound_else_gene|NA|bound_elsewhere_windowed (ssRNA)
RNA: GGGAGUUCUACAGUCCGACGAUCACAUGUUAGUUUAGUGAUGUCUUGGUGAACUGUGAGUGAACUGUAUUGAUUUUUCUAAUCUUUAGAGACCUUCACACAGCAUGAGGGCUGUUGGCAUUUUGAAAAAGGUUAAUAAGUAGACAACAGAGGAUUGAGCAUCA
B11: chr18:9283235:9283336:+|3pUTR|ENSG00000101745|msi1|FALSE|bound_elsewhere (ssRNA)
RNA: GGGAGUUCUACAGUCCGACGAUCCUGAUGGUUCAACCAGAGGUCUGGGAAAUAGCACUGUUGGCCCAAACAGAACAGGCUUUUAGAAGAUAAAAGCGACAAGAAGGAAUCUGGUGAAUUUUAGUCAUCCCAGCUUUUUAGUCUCAACAGAGGAUUGAGCAUCA
B12: ENSG00000198589:be:win_8601|3pUTR|ENSG00000198589|bound_else_gene|NA|bound_elsewhere_windowed (ssRNA)
RNA: GGGAGUUCUACAGUCCGACGAUCAAGUACCUGGAGCAUCAUUCUCUUCUACCACAUCUGAAUGUAACUUAAAUUUGCUCAAAGAAGCAAAAUAUUUUUUAAAGUUAUUAAUAAUUGCUAUUUUUGUAGUCUUUGCUUGACUUUCAACAGAGGAUUGAGCAUCA
B13: ENSG00000124766:be:win_2301|3pUTR|ENSG00000124766|bound_else_gene|NA|bound_elsewhere_windowed (ssRNA)
RNA: GGGAGUUCUACAGUCCGACGAUCGCUGGGCCUCCGCCUUCUUUUCUACGUGAAAUCAGUGAGGUGAGACUUCCCAGACCCCGGAGGCGUGGAGGAGAGGAGACUGUUUGAUGUGGUACAGGGGCAGUCAGUGGAGGGCGAGUGCAACAGAGGAUUGAGCAUCA
B14: chr3:165187899:165190830:-|CDS|ENSG00000121871|control|control|control (ssRNA)
RNA: GGGAGUUCUACAGUCCGACGAUCAAAUGGUGGGGUGGUGCUGUUUCCUCCUGGGGGAGGCUGUGGUAGUGGCAGUAUGCUACUAGAUCGAGAGAGGCCACAGCCUGCCCCCUGCACAGUGGGAUUUGUGGACUGUCUCUAUGGCAACAGAGGAUUGAGCAUCA

The other results are listed elsewhere or left out.

This assay deals with MSI1 full-length (mouse, UniProt Q61474 1-362). The experiment in a line: nsRBNS (natural sequence RNA bind-n-seq); RBNS binding buffer (assumed for nsRBNS): 25 mM Tris pH 7.5, 150 mM KCl, 3 mM MgCl2, 0.01% Triton X-100, 500 ug/ml BSA, 20 U/ml SUPERase-In, 4 C; UNK is unkempt and MSI1 is Musashi-1; names of the RNAs are library labels; protein concentration not given here; high values mean tight binding.
UniProt Q61474, sequence (Q61474 whole entry): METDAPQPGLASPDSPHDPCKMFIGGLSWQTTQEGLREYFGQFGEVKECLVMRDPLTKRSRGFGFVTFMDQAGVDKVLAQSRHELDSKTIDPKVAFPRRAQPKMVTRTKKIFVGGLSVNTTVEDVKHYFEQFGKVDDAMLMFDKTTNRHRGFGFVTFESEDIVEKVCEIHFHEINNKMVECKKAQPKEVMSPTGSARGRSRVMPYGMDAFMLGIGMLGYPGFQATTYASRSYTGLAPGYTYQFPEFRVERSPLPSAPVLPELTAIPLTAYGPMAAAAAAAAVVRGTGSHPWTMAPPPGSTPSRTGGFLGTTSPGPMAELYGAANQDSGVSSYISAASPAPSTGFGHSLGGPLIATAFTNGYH
In turn, B1 showed a binding signal of 0.934 enrichment R.

Molecule B2 came in with a binding signal of 0.778 enrichment R. Next, B3: 0.432 enrichment R; B4: 0.36 enrichment R. Next, B5: 0.4 enrichment R; B6: 0.524 enrichment R. As for B7, the figure is 0.307 enrichment R; as for B8, 0.313 enrichment R. Take B9: the binding signal was 0.842 enrichment R.

The molecule B10 registered a binding signal of 28.3 enrichment R. As for B11, the figure is 0.852 enrichment R. B12 yielded a binding signal of 1.11 enrichment R. As for B13, the figure is 0.602 enrichment R. As for B14, the figure is 0.675 enrichment R.
